These results are taken from the supplement of paper PMC10441789.

What all share (test): antibody binding signal (normalised fluorescence) (arbitrary fluorescence units); higher = stronger serum antibody binding to peptide
Experiment [1] concerns pooled sera of chronic Chagas disease patients, Bolivia. The procedure:
(§1)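 Microarray of 15-residue peptides over residues 30-55 of Trypanosoma cruzi TSSAII, each with 1 to 10 substitutions at naturally variable positions, probed with one serum pool per country.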

In experiment [2] the test system is pooled sera of chronic Chagas disease patients, Brazil. The procedure: as §1
The subject of experiment [3] is pooled sera of chronic Chagas disease patients, Colombia. The procedure: as §1
Experiment [4] has as its system pooled sera of chronic Chagas disease patients, Mexico. The procedure:
as §1

For experiment [5], the system named is pooled sera of chronic Chagas disease patients, USA. The procedure:
as §1

The test system of experiment [6] is pooled sera of uninfected people, Argentina. The procedure:
as §1

Experiment [7] relates to pooled sera of uninfected people, Bolivia. The procedure:
as §1

In experiment [8] the test system is pooled sera of uninfected people, Brazil. The procedure:
as §1

In experiment [9] the test system is pooled sera of uninfected people, Colombia. The procedure:
as §1

The test system of experiment [10] is pooled sera of uninfected people, Mexico. The procedure:
as §1

Experiment [11] relates to pooled sera of uninfected people, USA. The procedure:
as §1

The list shows a part of the results. Antibody binding of pooled human sera (four to six donors per pool; dilution not stated) to peptides of the Trypanosoma cruzi antigen TSSA on microarrays. Quantile-normalised fluorescence in arbitrary units, mean of duplicate arrays; higher = more binding. No active / inactive call. The uninfected pools are read here as the healthy donors of the same country. The strongest signals lie near the top of the scale (about 60,000).

Consider KDNKPAAGGTPSQSG, for which the antibody binding signal in experiment [1] is 199; in experiment [2] it was 217; in [3], 545; in experiment [4], 158; in experiment [5] it was 242; in [6] it was 225. Moreover, the antibody binding signal stood at 192 in [7]; 312 in experiment [8]; 195 in experiment [9]; 146 in [10]; 104 in experiment [11].

For TDNKPATGGAPSQPG, the antibody binding signal in experiment [1] is 16900; in experiment [2] it was 28500; in [3], 482; in experiment [4], 425; in experiment [5], 2530; in experiment [6], 239. The antibody binding signal in experiment [7] worked out at 608; in [8], 541; in [9], 227; in experiment [10] it was 346; in experiment [11], 224.

Regarding TSSTPPSGKENKPAT, the antibody binding signal in experiment [1] turned out to be 43200; in experiment [2], 26800; in [3], 1470; in experiment [4], 11800; in experiment [5], 12900; in experiment [6] it was 4660. For the same sequence, the antibody binding signal was 2270 in experiment [7]; 331 in experiment [8]; 790 in experiment [9]; 323 in [10]; 691 in [11].

For the sequence TEKKTATGGTPSPSG, the antibody binding signal in experiment [1] amounted to 838; in experiment [2], 785; in [3] it was 6050; in [4] it was 816; in experiment [5] it was 1910; in [6], 299. Moreover, the antibody binding signal in experiment [7] came to 209; in [8], 420; in experiment [9], 1070; in experiment [10] it was 263; in experiment [11] it was 284.

In the case of PPSGKDNKPATGETP, the antibody binding signal is 20800 in experiment [1]; 33500 in experiment [2]; 346 in experiment [3]; 14600 in experiment [4]; 32600 in experiment [5]; 632 in experiment [6]. The antibody binding signal in [7] came out at 785; in experiment [8] it was 515; in experiment [9] it was 271; in experiment [10], 1950; in experiment [11], 264.

SGKDKKPAAGGAPSQ: the antibody binding signal in [1] is 235; in [2], 376; in experiment [3], 2510; in experiment [4] it was 935; in experiment [5], 954; in experiment [6], 112. In addition, the antibody binding signal in [7] amounted to 105; in experiment [8], 112; in experiment [9] it was 526; in experiment [10], 73.3; in experiment [11], 85.8.

On to KKAAAGETPSQPGAS, for which the antibody binding signal in experiment [1] was determined as 1170; in [2], 24500; in [3], 197; in [4], 120; in experiment [5], 1220; in experiment [6], 206. The antibody binding signal was determined as 182 in experiment [7]; 88.4 in experiment [8]; 181 in [9]; 89 in experiment [10]; 251 in [11].

As to GKENKAATGEAPSQP, the antibody binding signal came out at 26300 in experiment [1]; 43600 in [2]; 13800 in [3]; 12300 in [4]; 29600 in experiment [5]; 544 in experiment [6]. Further, the antibody binding signal came out at 138 in experiment [7]; 114 in [8]; 198 in [9]; 119 in experiment [10]; 195 in [11].

On to GTDNKPATGGTPSPS, for which the antibody binding signal amounted to 852 in experiment [1]; 42200 in [2]; 1650 in experiment [3]; 672 in experiment [4]; 522 in experiment [5]; 190 in [6]. Further, the antibody binding signal came to 938 in experiment [7]; 612 in [8]; 619 in experiment [9]; 452 in [10]; 160 in experiment [11].

As for STPPSGTDNKAATGG, the antibody binding signal in [1] was 39200; in experiment [2], 44800; in [3], 2680; in [4], 31000; in experiment [5] it was 27200; in [6] it was 1060. The antibody binding signal in [7] amounted to 775; in [8], 1460; in experiment [9], 219; in [10], 301; in [11], 250.

Turning to SGTDNKAAAGEAPSQ, the antibody binding signal in experiment [1] amounted to 15800; in experiment [2] it was 42700; in [3], 403; in experiment [4] it was 184; in experiment [5] it was 11300; in [6], 81.1. The antibody binding signal was determined as 672 in experiment [7]; 1060 in [8]; 80.4 in experiment [9]; 99 in experiment [10]; 194 in [11].

In the case of TDKKAAAGGAPSQPG, the antibody binding signal in [1] came to 349; in [2], 2310; in experiment [3] it was 5630; in experiment [4] it was 634; in experiment [5], 413; in experiment [6] it was 201. Besides, the antibody binding signal amounted to 100 in [7]; 223 in experiment [8]; 120 in experiment [9]; 235 in [10]; 147 in [11].

SGKDKKPATGEAPSQ: the antibody binding signal in experiment [1] worked out at 16200; in experiment [2], 43700; in [3], 417; in [4], 653; in experiment [5], 31900; in experiment [6], 789. The antibody binding signal in experiment [7] is 307; in [8] it was 156; in [9] it was 729; in experiment [10], 82.6; in experiment [11] it was 133.
